Reference: article PMC8360153
No constants are given. Whether binding was seen depends on the method and setting. Some binding calls cover weakened binding; strength is not graded here. For some assays here: Tags and fused reporters may be left off the sequences shown.

Columns and labels:
[1] = target: T1, fluorescent (NT-647)-labeled ActS (E. coli) (UniProt Q46798); assay: MST; 100 nM FL-ActS (NT-647-labeled) titrated with two-fold serial dilutions of unlabeled amidase; 50 mM Tris-HCl pH 8, 150 mM NaCl, 5% glycerol, 0.025% TX-100; both purified
T1 sequence (chain, NT-647 fluorescent label (site not stated)): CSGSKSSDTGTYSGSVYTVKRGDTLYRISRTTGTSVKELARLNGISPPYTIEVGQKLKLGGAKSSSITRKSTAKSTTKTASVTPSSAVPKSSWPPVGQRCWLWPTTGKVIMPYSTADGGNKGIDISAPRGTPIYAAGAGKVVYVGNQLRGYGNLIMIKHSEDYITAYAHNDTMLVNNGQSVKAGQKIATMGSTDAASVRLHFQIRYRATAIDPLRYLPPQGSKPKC

[2] = target: T2, oligohistidine-tagged ActS (E. coli) (UniProt Q46798); assay: pull-down; oligohistidine-tagged ActS mixed with untagged amidase (2 μM each) in 10 mM HEPES/NaOH pH 7.5, 10 mM MgCl2, 150 mM NaCl, 0.05% Triton X-100; no formaldehyde cross-linker; pulled down to Ni2+-NTA beads 3 hr at 4°C; washed with 500 mM NaCl, 40 mM imidazole; Coomassie-stained SDS-PAGE; both purified
T2 sequence: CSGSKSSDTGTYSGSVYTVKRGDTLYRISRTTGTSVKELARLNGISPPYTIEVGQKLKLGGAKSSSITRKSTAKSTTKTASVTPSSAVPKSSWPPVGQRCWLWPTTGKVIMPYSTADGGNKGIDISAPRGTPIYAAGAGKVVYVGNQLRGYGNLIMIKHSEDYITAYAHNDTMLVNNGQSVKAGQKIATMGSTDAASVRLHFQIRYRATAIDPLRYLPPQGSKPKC

B1: AmiC (enzyme, UniProt P63883 32-417)
chain: AVSQVVAVRVWPASSYTRVTVESNRQLKYKQFALSNPERVVVDIEDVNLNSVLKGMAAQIRADDPFIKSARVGQFDPQTVRMVFELKQNVKPQLFALAPVAGFKERLVMDLYPANAQDMQDPLLALLEDYNKGDLEKQVPPAQSGPQPGKAGRDRPIVIMLDPGHGGEDSGAVGKYKTREKDVVLQIARRLRSLIEKEGNMKVYMTRNEDIFIPLQVRVAKAQKQRADLFVSIHADAFTSRQPSGSSVFALSTKGATSTAAKYLAQTQNASDLIGGVSKSGDRYVDHTMFDMVQSLTIADSLKFGKAVLNKLGKINKLHKNQVEQAGFAVLKAPDIPSILVETAFISNVEEERKLKTATFQQEVAESILAGIKAYFADGATLARRG
Question: For B1, which binding [1] is on record?
Answer: binds weakly

Question: And the binding [2]?
Answer: binds

B2: AmiB (enzyme, UniProt P26365 23-445)
chain: ATLSDIQVSNGNQQARITLSFIGDPDYAFSHQSKRTVALDIKQTGVIQGLPLLFSGNNLVKAIRSGTPKDAQTLRLVVDLTENGKTEAVKRQNGSNYTVVFTINADVPPPPPPPPVVAKRVETPAVVAPRVSEPARNPFKTESNRTTGVISSNTVTRPAARATANTGDKIIIAIDAGHGGQDPGAIGPGGTREKNVTIAIARKLRTLLNDDPMFKGVLTRDGDYFISVMGRSDVARKQNANFLVSIHADAAPNRSATGASVWVLSNRRANSEMASWLEQHEKQSELLGGAGDVLANSQSDPYLSQAVLDLQFGHSQRVGYDVATSMISQLQRIGEIHKRRPEHASLGVLRSPDIPSVLVETGFISNNSEERLLASDDYQQQLAEAIYKGLRNYFLAHPMQSAPQGATAQTASTVTTPDRTLPN
Question: With B2 as the binder, how does the binding [1] read?
Answer: no binding

Question: What about the binding [2] of the same binder?
Answer: no binding (tested: 2 μM)

B3: AmiA (enzyme, UniProt P36548 35-289)
chain: KDELLKTSNGHSKPKAKKSGGKRVVVLDPGHGGIDTGAIGRNGSKEKHVVLAIAKNVRSILRNHGIDARLTRSGDTFIPLYDRVEIAHKHGADLFMSIHADGFTNPKAAGASVFALSNRGASSAMAKYLSERENRADEVAGKKATDKDHLLQQVLFDLVQTDTIKNSLTLGSHILKKIKPVHKLHSRNTEQAAFVVLKSPSVPSVLVETSFITNPEEERLLGTAAFRQKIATAIAEGVISYFHWFDNQKAHSKKR
Question: Which binding [1] does the source give for B3 here?
Answer: no binding
